Source: paper PMC9911399, “Two distinct binding modes provide the RNA-binding protein RbFox with extraordinary sequence specificity”
Changes are numbered by the printed parent chain; changes in the protein carry UniProt numbers. The list shows a part of the results.

T1: RBFOX1 RRM (Homo sapiens, UniProt Q9NWB1 109-208)
T1 sequence: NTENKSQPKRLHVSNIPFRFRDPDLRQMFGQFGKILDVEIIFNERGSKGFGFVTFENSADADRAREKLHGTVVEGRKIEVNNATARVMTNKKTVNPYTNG

B1: UAUCAUA (DNA:RNA)
RNA: GGGAGACCGGAAUUCAGAUUGUCCUAUCAUAUUAAAUCCCGUCGUAGCCACCA
DNA 1: CAATCTGAATTCCGGTCTCCC
DNA 2: TGGTGGCTACGACGGGATT
B2: CCUGCCC (DNA:RNA)
RNA: B1 RNA with U25C, A26C, C28G, A29C, U30C, A31C
DNA 1: CAATCTGAATTCCGGTCTCCC
DNA 2: TGGTGGCTACGACGGGATT
B3: UGACUGC (DNA:RNA)
RNA: B1 RNA with A26G, U27A, A29U, U30G, A31C
DNA 1: CAATCTGAATTCCGGTCTCCC
DNA 2: TGGTGGCTACGACGGGATT
B4: GACCAUU (DNA:RNA)
RNA: B1 RNA with U25G, U27C, A31U
DNA 1: CAATCTGAATTCCGGTCTCCC
DNA 2: TGGTGGCTACGACGGGATT
B5: UUAGACU (DNA:RNA)
RNA: B1 RNA with A26U, U27A, C28G, U30C, A31U
DNA 1: CAATCTGAATTCCGGTCTCCC
DNA 2: TGGTGGCTACGACGGGATT
B6: GAAUUAA (DNA:RNA)
RNA: B1 RNA with U25G, U27A, C28U, A29U, U30A
DNA 1: CAATCTGAATTCCGGTCTCCC
DNA 2: TGGTGGCTACGACGGGATT
B7: AAGGUAU (DNA:RNA)
RNA: B1 RNA with U25A, U27G, C28G, A29U, U30A, A31U
DNA 1: CAATCTGAATTCCGGTCTCCC
DNA 2: TGGTGGCTACGACGGGATT
B8: AGAGGAU (DNA:RNA)
RNA: GGGAGACCGGAAUUCAGAUUGUCCAGAGGAUUUAAAUCCCGUCGUAGCCACCA
DNA 1: CAATCTGAATTCCGGTCTCCC
DNA 2: TGGTGGCTACGACGGGATT
B9: UGUAGAC (DNA:RNA)
RNA: B8 RNA with A25U, A27U, G28A, U31C
DNA 1: CAATCTGAATTCCGGTCTCCC
DNA 2: TGGTGGCTACGACGGGATT
B10: GGUAGAC (DNA:RNA)
RNA: B8 RNA with A25G, A27U, G28A, U31C
DNA 1: CAATCTGAATTCCGGTCTCCC
DNA 2: TGGTGGCTACGACGGGATT
B11: UCUGGUA (DNA:RNA)
RNA: B1 RNA with A26C, C28G, A29G
DNA 1: CAATCTGAATTCCGGTCTCCC
DNA 2: TGGTGGCTACGACGGGATT
B12: UUCCGAG (DNA:RNA)
RNA: B8 RNA with A25U, G26U, A27C, G28C, U31G
DNA 1: CAATCTGAATTCCGGTCTCCC
DNA 2: TGGTGGCTACGACGGGATT
B13: UUCACAU (DNA:RNA)
RNA: B8 RNA with A25U, G26U, A27C, G28A, G29C
DNA 1: CAATCTGAATTCCGGTCTCCC
DNA 2: TGGTGGCTACGACGGGATT
B14: CGCUCGU (DNA:RNA)
RNA: B8 RNA with A25C, A27C, G28U, G29C, A30G
DNA 1: CAATCTGAATTCCGGTCTCCC
DNA 2: TGGTGGCTACGACGGGATT
B15: UGUCAAU (DNA:RNA)
RNA: B1 RNA with A26G, U30A, A31U
DNA 1: CAATCTGAATTCCGGTCTCCC
DNA 2: TGGTGGCTACGACGGGATT
B16: CACGGCC (DNA:RNA)
RNA: B8 RNA with A25C, G26A, A27C, A30C, U31C
DNA 1: CAATCTGAATTCCGGTCTCCC
DNA 2: TGGTGGCTACGACGGGATT
B17: ACCUGUG (DNA:RNA)
RNA: B8 RNA with G26C, A27C, G28U, A30U, U31G
DNA 1: CAATCTGAATTCCGGTCTCCC
DNA 2: TGGTGGCTACGACGGGATT
B18: GUUGGCG (DNA:RNA)
RNA: B8 RNA with A25G, G26U, A27U, A30C, U31G
DNA 1: CAATCTGAATTCCGGTCTCCC
DNA 2: TGGTGGCTACGACGGGATT
B19: ACAGUAA (DNA:RNA)
RNA: B8 RNA with G26C, G29U, U31A
DNA 1: CAATCTGAATTCCGGTCTCCC
DNA 2: TGGTGGCTACGACGGGATT
B20: CUUUUGG (DNA:RNA)
RNA: B1 RNA with U25C, A26U, C28U, A29U, U30G, A31G
DNA 1: CAATCTGAATTCCGGTCTCCC
DNA 2: TGGTGGCTACGACGGGATT

target: T1, RBFOX1 RRM; assay: EMSA; HiTS-Eq, 1 nM pool, 10 min; buffer printed only for the single-RNA assays: 10 mM Tris pH 7.5, 150 mM NaCl, 3.4 mM EDTA, 0.001% NP-40, 30 C; settings: tags: His6 N-terminal (pET28a); label: 5' 32P
Summary of the method: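 Purified wild-type or mutant RbFox RRM at increasing concentrations was equilibrated with 1 nM of 5′-radiolabelled RNA carrying 7 randomized nucleotides for 10 min in 50 µL. Unbound RNA was separated by 8% native PAGE and sequenced. Relative association constants came from read-count changes of each RNA species compared with the control reaction, normalised to the cognate motif.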

| Binder | binding signal |
| --- | --- |
| B1 | 0.00198 KA relative to UGCAUGU |
| B2 | 0.006 KA relative to UGCAUGU |
| B3 | 0.039 KA relative to UGCAUGU |
| B4 | 0.00561 KA relative to UGCAUGU |
| B5 | 0.00666 KA relative to UGCAUGU |
| B6 | 0.0029 KA relative to UGCAUGU |
| B7 | 0.00559 KA relative to UGCAUGU |
| B8 | 0.00673 KA relative to UGCAUGU |
| B9 | 0.0133 KA relative to UGCAUGU |
| B10 | 0.0185 KA relative to UGCAUGU |
| B11 | 0.0181 KA relative to UGCAUGU |
| B12 | 0.00775 KA relative to UGCAUGU |
| B13 | 0.00205 KA relative to UGCAUGU |
| B14 | 0.0214 KA relative to UGCAUGU |
| B15 | 0.0109 KA relative to UGCAUGU |
| B16 | 0.00963 KA relative to UGCAUGU |
| B17 | 0.00788 KA relative to UGCAUGU |
| B18 | 0.0235 KA relative to UGCAUGU |
| B19 | 0.00125 KA relative to UGCAUGU |
| B20 | 0.0125 KA relative to UGCAUGU |
